The supplement of paper PMC11417369
± gives the standard deviation of the averaged measurements. This is one part of the list.

System: PfAP2-G AP2 domain (GST-tagged)
Test: gcPBM binding intensity (ln(normalized median fluorescence intensity)); higher = stronger DNA binding
How it was run: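 Binding intensity values are the highest Masliner-normalised natural-log median intensity among replicate spots of either probe orientation. The binding step lasted 1 h in 1× PBS with 1% milk, 0.2 mg/ml BSA, 0.5% salmon testes DNA and 0.03% Triton X-100, using GST-tagged P. falciparum DNA-binding domains expressed in E. coli on an Agilent 4 × 180k array of primer-extended double-stranded 36-bp intergenic genomic probes plus negative controls. Alexa488 anti-GST antibody and a 488 nm scan detected bound protein.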

Row | Sequence | gcPBM binding intensity (ln)
1 | TTTGAAATAAATAATGCACACTCTACATATATACGT [CACACA_site2244] | 9.94 ± 0.042
2 | ATATTATCATATTCGAGTACACGAAGTATTATTGCA [XGTACX_site6765] | 11.4 ± 0.92
3 | AATAAAGTAATAACTACACACATTTATAAAAAAGTA [CACACA_site3753] | 9.885 ± 0.007
4 | TAATAATAATTAAATTGTACATATAATATAATATAA [XGTACX_site8554] | 10.9 ± 0.69
5 | AACATATTGGATTTAGTGCACATATATATCATAATA | 10.2 ± 0.13
6 | AAAAATTACCCTTGTGTACACATATATTATCTGTAT [CACACA_site4513] | 11.6 ± 0.95
7 | TATAAGCTTTCAATGTGTACATATTATTTTATTATT [XGTACX_site3988] | 11.4 ± 0.81
8 | TCTTATAAACATGTATATATTAAAAAAAAAAAAAAA [TGCATGCA_negctrl_site86] | 9.59 ± 0.47
9 | AGGTGATTAATATATACACACATACATATATATATA [CACACA_site8913] | 9.95 ± 0.23
10 | TAAAAATTACTATATGAACACACATGATTAGATATA [CACACA_site9012] | 9.965 ± 0.049
11 | TAATTTTCAATAATTTGTACATAATTTTTATAAATT [XGTACX_site8133] | 10.9 ± 0.59
12 | ATATATCATCATGTATGTACACACATACATATATTA [XGTACX_site2814] | 11.2 ± 0.74
13 | TATGCTTTTACAATGTGTACTTATATTTTTCACAGG [XGTACX_site6201] | 11.5 ± 0.95
14 | AACCATAAAAAGTGTACACATATAAAAAATATGGAA [CACACA_site4199] | 11.7 ± 1.1
15 | TATATAAATTAACCAGTGCATTATTTGGAAATTATT | 9.89 ± 0.042
16 | TAAAAAAATTTTACAAGTACAAAAAAATGTAATAAA [XGTACX_site4829] | 11.2 ± 0.57
17 | ATATATATAGATCGAAGTACAGATAGAATGAAAATA [XGTACX_site2695] | 11.2 ± 0.64
18 | ACAAGAGAAAAAAATACACACAAGATAAAAATGTAT [CACACA_site607] | 9.925 ± 0.092
19 | ACCATATGTACATTTTTTTTTTTTTTTTTTTTTTTT [CACACA_negctrl_site1188] | 11.5 ± 0.72

Row | Sequence | gcPBM binding intensity (ln)
20 | ATATATATATAATGTAGTACTATTTAATAATAAGCC [XGTACX_site1263] | 11.3 ± 0.69
21 | TATAATCATATACACGCATGTATAAAATTTAATACT [TGCATGCA_site700] | 9.79 ± 0.13
22 | ATATGTTACAAAGATTGTACTTATTAAGGAGCGACT [XGTACX_site5094] | 11.4 ± 0.86
23 | TAATATATGTATTATGCATGTGAATAAGCACTTGAT [TGCATGCA_site848] | 10.19 ± 0.092
24 | AAAAAAAAAAAAAAAGCACACACCAATGAGCAGCTT [CACACA_site1845] | 10.4 ± 0.35
25 | CACACCCACAGACACACACACACATATATAATATAT [CACACA_site594] | 10.3 ± 0.36
26 | ATGTATATAAATAGTAGTACATTATTTCACACTGTA [XGTACX_site2061] | 11.4 ± 0.97
27 | TATTGTATCCTTAATGCATGCACCAAATAAAAAAAG [TGCATGCA_site541] | 10.5 ± 0.54
28 | ACATTCAAGCGTAATTGTACATACATATATATATAT [XGTACX_site8876] | 11 ± 0.6
29 | TTTAACTTTTATATAACACACATATTGTAATTATGT [CACACA_site6486] | 9.825 ± 0.049
30 | AAATAAAAATAAAATAAAATAAAATTAAATGGGAAT [GTGCAC_negctrl_site349] | 9.82 ± 0.11
31 | GTTTTATATTATATATGTACATATCCATGAGATATA [XGTACX_site3328] | 11.1 ± 0.64
32 | TGTAAACATAAGATATGTACTTATATCATATTATAA [XGTACX_site6883] | 11.1 ± 0.76
33 | ATGACAATTCAAAATTGTACATAAAAAAAAAAAAAA [XGTACX_site7560] | 11 ± 0.93
34 | TTAAATGTTAAAAGGGTGCTATTATATAAATGAAAA [GTGCAC_site9882] | 10.1 ± 0.14
35 | AAAAAACATTTTCGAGTGCATGTTTTGCTTTATTTC | 9.7 ± 0.23
36 | AATAATTTGGTCTTATCAAAAATTAAAAATAAATAA [XGTACX_negctrl_site430] | 10.2 ± 0.54
37 | AAAAAAATTTGGCATACACACACACCCCCACCCACA [CACACA_site8094] | 11.3 ± 0.55
38 | TTCATATGTTTTAACACACACGCATATATTATATAT [CACACA_site2007] | 10.02 ± 0.049

Row | Sequence | gcPBM binding intensity (ln)
39 | TATATATATTATAATACATGCGGTGATGAAAGTTAT [TGCATGCA_site924] | 10.2 ± 0.2
40 | TATAAATATAGACACACACACACCAAAGCGTAGCGC [CACACA_site6179] | 10.1 ± 0.16
41 | TTTTTTTATATAGACACAAAAGAAAATTACATATAC [CACACA_negctrl_site235] | 10.4 ± 0.5
42 | TATAATATATATATATTTATATATATCTTCCTAATC [GTGCAC_negctrl_site682] | 9.38 ± 0.19
43 | AATATTTATTTTATATGTACATAATTTATTTTTAAT [XGTACX_site776] | 11.3 ± 0.66
44 | AAAAAAAAAAAAAAAACACACAAGGATCATATATAT [CACACA_site3812] | 10.2 ± 0.19
45 | GATTTGTCTTACAGTGGTACACTTATATATATGTGA [XGTACX_site2899] | 11.4 ± 0.82
46 | TTTTTAAAAAAACATACACACAAAAAAAAAAAAAAA [CACACA_site3935] | 9.85 ± 0.45
47 | TATGAAGTACACAATACACACTAATTATATATAAAT [CACACA_site5444] | 11.5 ± 1.1
48 | TAAATAAATTTATACACACACACACCCATATATATA [CACACA_site849] | 10.29 ± 0.085
49 | AAAAAATCAAAACACACACACACACTAGAAAAAAAA [CACACA_site4909] | 10.1 ± 0.26
50 | TTATGTTGTAAATGCACACATACATATACGCAGTTT [CACACA_site3015] | 10.04 ± 0.028
51 | AATGGAGTTTATAAGTATAAACGAGGGATACCTAAA [XGTACX_negctrl_site483] | 10.3 ± 0.28
52 | AATATAAATAATAGTAGTACATATATATCTCAGAAA [XGTACX_site4055] | 11.3 ± 0.78
53 | AATAAAAATATATCCACACACATATATATATCTGTA [CACACA_site4481] | 9.755 ± 0.021
54 | TATATTATATTTTTATGTACATATATGTTTTTTTTT [XGTACX_site8239] | 11.3 ± 0.72
55 | ATTTTATCAAGAGGAAGTACATTACCCCATGAAAAA [XGTACX_site8295] | 11.4 ± 0.78
56 | TATATTTTTTAATTCACACAAAAATGAAAAATATTT [CACACA_site6001] | 10.1 ± 0.18
57 | ATATCTGAAGTGTAAAGTACATATATATATTCATAT [XGTACX_site4612] | 10.9 ± 0.64
